Among the data in PubChem BioAssay AID1346428 (National Center for Advancing Translational Sciences (NCATS), 2018) are activation values, retold here.

The structures appear in SMILES notation. About 1,200 (2.5%) of roughly 48,000 compounds were called active. About 2% were inconclusive and are not listed.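 Rule for the calls: active = activation of at least 60% and not above a set upper limit (about 1 call in 100 departs from these limits); inconclusive = activation of 40% to 60%, or above that upper limit; inactive = activation under 40%.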 Some of the results follow.

In this assay the target is Probable G-protein coupled receptor 32 (Homo sapiens) (UniProt O75388). Briefly: qHTS for Agonists of Human Resolvin D1 Receptor DRV1. Note: 0% is about no effect. The settings on record: CHO-K1 GPR32 beta-arrestin PathHunter luminescence, 90 min; at 76.9 µM; stronger effect = higher value; zero percent set by DMSO-only wells. A digest of the protocol: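 Step 1: seed CHO-K1 GPR32 beta-arrestin cells, 2,500/well, overnight at 37 °C. Step 2: add compounds, 90 min at 37 °C. Step 3: detection reagent, 1 h ambient, then luminescence.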
UniProt O75388, sequence (O75388 whole entry, looked up): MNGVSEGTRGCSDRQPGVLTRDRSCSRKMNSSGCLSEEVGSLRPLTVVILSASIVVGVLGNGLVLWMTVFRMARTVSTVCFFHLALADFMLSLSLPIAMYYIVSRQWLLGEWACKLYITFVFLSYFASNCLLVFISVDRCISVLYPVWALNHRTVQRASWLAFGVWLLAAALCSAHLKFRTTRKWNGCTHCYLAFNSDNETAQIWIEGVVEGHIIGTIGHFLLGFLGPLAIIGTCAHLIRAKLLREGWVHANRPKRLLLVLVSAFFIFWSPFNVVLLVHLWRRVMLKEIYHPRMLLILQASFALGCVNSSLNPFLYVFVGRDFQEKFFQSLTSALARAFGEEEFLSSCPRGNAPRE
For orientation: Quantitative high-throughput screening tests each substance at several concentrations.
As for `O=C(Nc1ccc(F)c(F)c1)c1ccc(F)c(S(=O)(=O)N2CCC3(CC2)OCCO3)c1`, the activation is inactive: 24.1%.

For `O=S(=O)(Nc1cccc(-c2ccc(N3CCCCC3)nn2)c1)c1ccc(F)cc1F`, the activation is inactive: 16.8%.

Consider `CSc1ccc(CCNC(=O)CCc2c(C)nc3c4cccnc4nn3c2C)cc1`, for which the activation was inactive: 8.63%.

Regarding `CCOc1ccc(NS(=O)(=O)c2ccc3[nH]cc(C(=O)N(C)C4CCCCC4)c(=O)c3c2)cc1`, the activation was inactive: -0.625%.

On to `Cc1ccc2c(=O)cc(C(=O)Nc3c(C(=O)c4ccccc4)oc4ccccc34)oc2c1`, for which the activation is inactive: 8.81%.

Regarding `NC(=O)C1CCN(C(=O)c2ccc3c(c2)N(Cc2cccc(Cl)c2)C(=O)c2ccccc2S3(=O)=O)CC1`, the activation is inactive: -24.2%.

On to `CCOC(=O)c1c(-c2ccc(C)cc2C)csc1NC(=O)c1ccccc1Cl`, for which the activation is inactive: 3.32%.

For `O=C(NCCCN1CCCCC1)c1ccc2c(c1)sc1nc(-c3ccc(F)cc3)cn12`, the activation is inactive: 8.8%.

With `COC(=O)c1c(-c2cccs2)csc1NC(=O)COc1ccccc1`, the activation is inactive: -12.3%.

Take `COc1ccc(C2C(=O)N(C3CCCCCC3)CC(=O)N2Cc2ccccc2)cc1` (stereo unspecified): the activation was inactive: -25.7%.

Regarding `O=C(O)c1ccc[n+]([O-])c1`, the activation was inactive: 5.43%.

For the molecule `COCCNC(=O)Cn1cc2c(n1)-c1c(oc(C(=O)N3CCCC3)c1C)CC2`, the activation is inactive: 16.5%.

As to `NC(=O)Cn1c(=O)n(CCCCCC(=O)NCc2ccccc2Cl)c(=O)c2sccc21`, the activation was inactive: -9.54%.

For the molecule `CC(CNC(=O)c1ccc(Nc2nc3ccccc3n3nnnc23)cc1)c1ccccc1` (stereo unspecified), the activation is inactive: -17.2%.

In the case of `CCCCOC(=O)/C(C#N)=C/c1ccc(-c2ccc(Br)cc2)o1`, the activation is inactive: -9.12%.

Take `CCC(=O)N1CCN(c2nc3c(C)cccc3s2)CC1`: the activation is inactive: -0.0719%.

In the case of `COc1ccc(OC(=O)CSc2nnc(-c3ccc(F)cc3)o2)cc1`, the activation is inactive: -15.1%.

As for `CCCn1c2ccccc2c2cnn(CC(=O)NC(C)CC)c(=O)c21` (stereo unspecified), the activation was inactive: -12.7%.

For `Cc1ccc([N+](=O)[O-])c(Oc2ncnc3c2oc2ccccc23)c1`, the activation was inactive: -2.07%.

On to `CCc1cccc(C)c1NC(=O)c1nc2ccccc2nc1N1CCCCC1`, for which the activation is inactive: 47.3%.

As to `COc1ccc2c(Sc3ccccc3)c(C(=O)N3CCC(C)CC3)[nH]c2c1`, the activation is inactive: -14%.

With `Cc1ccc(N2C(=O)CSC23C(=O)N(CC(=O)Nc2ccc(C)cc2C)c2ccccc23)cc1` (stereo unspecified), the activation was inactive: -7.57%.

With `Cc1c(N)c(=O)n(-c2ccccc2)n1C`, the activation was inactive: -6.13%.

Take `Cc1ccc(NC(=O)CCCN2C(=O)COc3ccc(C)cc32)c(C)c1`: the activation was inactive: -27.7%.

In the case of `O=S(=O)(c1ccccc1)c1nnn2c1nc(NC1CCCCCC1)c1sccc12`, the activation is inactive: -3.11%.

Regarding `Cc1cccc(Cc2c(C)nc3nc(SCc4cccc(F)c4)nn3c2C)c1`, the activation was inactive: -12.7%.

On to `COc1ccccc1CNC(=O)C(=O)NCC(c1cccnc1)N1CCN(c2ccc(F)cc2)CC1` (stereo unspecified), for which the activation was inactive: 2.27%.

In the case of `CCOc1ccc(CCNC(=O)CN2C(=O)COc3ccc(S(=O)(=O)N(CC)CC)cc32)cc1`, the activation was inactive: -0.128%.

Consider `Cc1ccc(Cn2ccnc2SCC(=O)NC2CCCC2)cc1`, for which the activation was inactive: -2.34%.

Turning to `COc1cc(S(=O)(=O)n2ccnc2C(C)C)ccc1Br`, the activation was inactive: -14.5%.

With `Cc1ccc(-c2nc(S(=O)(=O)c3ccc(C)cc3)c(N3CCCCC3)o2)cc1`, the activation is inactive: -5.54%.

Turning to `O=C(CN(c1cccc(C(F)(F)F)c1)S(=O)(=O)c1ccccc1)Nc1cccc(Cl)c1`, the activation is inactive: 21.9%.

With `COc1ccc2c(CNCc3ccco3)c(C(=O)O)n(Cc3ccccc3)c2c1`, the activation is inactive: 13%.

As for `COc1ccc(Cl)cc1NC(=O)Cn1nnc(C(=O)NCc2cccs2)c1N`, the activation was inactive: -1.65%.

`C=CCOc1ccccc1OCC(O)CNC(C)C` (stereo unspecified): the activation is inactive: -8.55%.

As to `COc1ccc(N2CCN(C(=O)c3c4c(nc5ccccc35)C(=O)N(C3CCCCC3)C4)CC2)cc1`, the activation was inactive: -5.07%.

As to `COc1cccc(N2CC(NC(=O)C3CCCC3)CC2=O)c1` (stereo unspecified), the activation was inactive: 0.358%.

Regarding `O=C(Nc1ccc2nc(SCC(=O)N3CCCC3)sc2c1)c1cccc(F)c1`, the activation was inactive: -6.42%.

`CCc1ccc(-n2c(=O)c3ccc(C(=O)NCCc4ccccc4)cc3n(Cc3ccccc3C#N)c2=O)cc1`: the activation was inactive: -5.99%.

Take `COC(=O)c1c(-c2cccs2)csc1NC(=O)c1ccc(C(C)(C)C)cc1`: the activation is inactive: 0.607%.

Regarding `CSc1ccc(C2c3[nH]c4ccccc4c3CCN2C(=O)CCC2CCCC2)cc1` (stereo unspecified), the activation is inactive: -38.2%.

Regarding `COc1ccc(-c2nc3ccccc3o2)cc1NC(=O)c1ccc(OCC(C)C)cc1`, the activation is inactive: 1.62%.

Turning to `COc1ccc(-c2nnc(SCC(=O)c3ccc(NC(C)=O)cc3)o2)cc1OC`, the activation was inactive: -11.4%.

For the molecule `Cc1cc(C)cc(NC(=O)CCCc2nnc3n(CC(C)C)c(=O)c4sccc4n23)c1`, the activation is inactive: -9.84%.

For `Cc1ccc(NC(=O)c2ccc3c(c2)NC(=O)c2ccccc2S3)cc1`, the activation is inactive: 12.7%.

Regarding `Cc1ccc(S(=O)(=O)C(CNC(=O)COc2ccc(Cl)cc2)c2ccco2)cc1` (stereo unspecified), the activation was inactive: -19.7%.

Take `CCOc1ccc(-c2nnc(SCC(=O)c3ccc(F)cc3)n2-c2ccccc2)cc1`: the activation is inactive: -12%.

Turning to `CC(=O)Nc1cccc(NC(=O)CSc2nccn2Cc2ccco2)c1`, the activation is inactive: -0.161%.

As for `COc1ccc(/C=C/C(=O)Nc2ccc(Cl)cc2Cl)cc1`, the activation is inactive: 16%.

Take `COc1ccc2c(c1)c(CC(=O)O)c(C)n2C(=O)c1ccccc1`: the activation is inactive: 3.43%.

Turning to `Cc1ccc(Cn2ccnc2SCC(=O)Nc2ccc3c(c2)OCCO3)cc1`, the activation was inactive: -20.9%.

In the case of `CCN(CC)CCCNC(=O)C(=O)Nc1ccc2nc3n(c(=O)c2c1)CCCCC3`, the activation was inactive: 4.19%.

Consider `Cc1ccccc1CNC(=O)c1cc2cccc3c2n1CC(C)S3` (stereo unspecified), for which the activation was inactive: -22.5%.

On to `O=C(Nc1cccc(Cl)c1)c1cc(S(=O)(=O)N2CCCc3ccccc32)ccc1F`, for which the activation was inactive: -19.2%.

In the case of `CCOc1cc(C2CC(=O)Nc3c2c(=O)nc(SCc2cccc(Cl)c2)n3C)ccc1O` (stereo unspecified), the activation is inactive: -20.3%.

As for `Cc1ccc(NC(=O)Cn2cc(C(=O)c3ccco3)c3ccccc32)c(C)c1`, the activation is inactive: -14.3%.

For `COc1ccc(-c2cc(C(=O)Nc3sc4c(c3C(N)=O)CCC(C)C4)no2)cc1` (stereo unspecified), the activation was inactive: -7.46%.

As to `Fc1ccccc1N1CCN(c2ncnc3onc(-c4cccc(Cl)c4)c23)CC1`, the activation is inactive: 2.56%.

In the case of `Cc1c(NC(=O)Nc2ccc(Cl)c(C(F)(F)F)c2)c(=O)n(-c2ccccc2)n1C`, the activation was inactive: -30.9%.

With `CCOc1ccc(OCC)c(-n2cnnn2)c1`, the activation was inactive: -11.6%.

Take `COc1cccc(OCc2cc(=O)n3cc(C)sc3n2)c1`: the activation was inactive: -4.01%.

For the molecule `CC(=O)Nc1ccc(NC(=O)c2nc(SCc3ccccc3C)ncc2Cl)cc1`, the activation is active: 65.4%.

Regarding `NS(=O)(=O)c1ccc(NC(=O)CN2CCN(c3ccc(F)cc3)CC2)cc1`, the activation was inactive: 3.32%.

With `Cn1c(=O)c2c(-c3ccccc3Br)n(Cc3ccccc3)cc2n(C)c1=O`, the activation is inactive: 0%.

On to `Cc1cccn2c(=O)cc(COc3ccc(NC(=O)C(C)Oc4ccccc4)cc3)nc12` (stereo unspecified), for which the activation is inactive: -4.89%.

With `CCCCNC(=O)c1cc(-c2ccc(Cl)c(Cl)c2)on1`, the activation was inactive: 8.61%.

With `Cc1ccc(Cl)cc1-n1ncc2c(NCCC3=CCCCC3)ncnc21`, the activation is inactive: 49%.

In the case of `COc1ccc(-c2cc3c(=O)n(CC(=O)Nc4cc(C)ccc4C)ccn3n2)cc1`, the activation was inactive: -6.78%.

For the molecule `CCc1ccc(C(=O)CSc2nc(-c3ccccc3)nc3c2CCCC3)cc1`, the activation is inactive: -7.78%.

Turning to `Cc1ccc(CNC(=O)CN2C(=O)CSc3ccc(S(=O)(=O)N4CCCC4)cc32)cc1`, the activation was inactive: -22.5%.

Turning to `Cc1ccc(C)c(N2CCN(S(=O)(=O)c3ccc4c(c3)CCCN4C(=O)C3CCC3)CC2)c1`, the activation is inactive: -29.6%.

Take `COc1ccc2nc3sc(C(=O)N4CCN(c5ccc(F)cc5)CC4)cc3cc2c1`: the activation was inactive: -1.53%.

For the molecule `Cc1cc2oc(C(=O)Nc3sc4c(c3C(=O)NCc3ccccc3)CCCC4)cc(=O)c2cc1C`, the activation was inactive: -3.06%.

As to `COc1ccc(CNS(=O)(=O)c2ccc(F)c(C(=O)Nc3c(C)cc(C)cc3C)c2)cc1`, the activation was inactive: 11.5%.

With `CCOC(=O)c1cc(-c2ccc(OC)cc2)n(CCC(=O)Nc2cccc(C(C)=O)c2)c1C`, the activation is inactive: -15.6%.

For the molecule `COc1cccc(-c2nc3c(c(SCc4ccccc4Cl)n2)Cc2c(CO)cnc(C)c2O3)c1`, the activation is inactive: 24.6%.

Turning to `CN(C)c1ccc(CNC(=O)CN2C(=O)CCn3nc(-c4cn(C)c5ccccc45)cc32)cc1`, the activation is inactive: 30.4%.

As for `CCC(C)NC(=O)CSc1nnc(-c2ccc(C)cc2)c(-c2ccc(C)cc2)n1` (stereo unspecified), the activation is inactive: -29%.

With `COCCCNC(=O)c1sc2nc(C)c(C(=O)Nc3ccc(C)cc3C)c(-c3ccc(Br)cc3)c2c1N`, the activation was inactive: -1.4%.

As for `COc1ccc(-c2noc(CN(C(=O)Cc3ccc(C)cc3)C(C)C)n2)cc1`, the activation was inactive: 26.9%.

Regarding `CCCN(CCC)C(=O)C1CCCN(c2ncnc3onc(-c4ccc(F)cc4)c23)C1` (stereo unspecified), the activation was inactive: -3.51%.

For `Cc1ccc(CSCCC(=O)N2CCN(c3cc(C)ccc3C)CC2)cc1`, the activation is inactive: -16.1%.

Regarding `COc1cccc(CNC(=O)C2CCN(C(=O)c3sccc3-n3cccc3)CC2)c1`, the activation is inactive: -15%.

Consider `O=C(NCCCO)C(=O)Nc1c2c(nn1-c1ccccc1)CSC2`, for which the activation is inactive: -17.1%.

Take `CCCN(CCC)C(=O)c1cn(CC)c2ccc(S(=O)(=O)N3CCCCC3)cc2c1=O`: the activation is inactive: -8.13%.

As to `CCC(CC)C(=O)NCc1nc2cccnc2n1Cc1ccc(F)cc1`, the activation was inactive: -9.22%.
